Test results published in PubChem BioAssay AID652104 (National Center for Advancing Translational Sciences (NCATS), 2013).
Hit rate of the full screen: of about 410,000 compounds, about 7,200 (1.8%) were called active. Inconclusive means that the source gave no clear call. Such entries were picked first, then a sample of the others. Calls come from the whole dose curve; as a rule, active = well fitted activation curve with a large enough effect; inconclusive = small, poorly fitted or top-dose-only effect, or another doubt; inactive = no such curve, though single readings can be large or run the other way. A potency beside an inconclusive call is a rough fit, not a confirmed value.

Test: qHTS of TDP-43 Inhibitors; note: nearly all actives have a fitted effect of over 50% in size; for growth rescue (activation): % of control where 0% means no effect
Conditions: TDP-43 expressing yeast growth rescue, BacTiter-Glo, 24 h; growth rescue (activation): at 46.1 µM (top of the series) unless noted
In short: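 Yeast cells expressing TDP-43 under galactose induction are exposed to compounds for 24 hr at 30 deg C. BacTiter-Glo luminescence measures growth, so protective compounds score as activators.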
Potency is the fitted concentration of half-maximal effect; tags give direction and shape of the fitted curve.

Potency, inconclusive:
O=C(Nc1cccc2cccnc12)C1CCCC1 17.8 µM [activator, partial curve]
Cc1ccc2c(c1)/C(=C/c1ccccc1)C(=O)N2 17.8 µM [activator, single point]
CCN(C(=O)CC(C)C)c1nnc(Cn2nnc3ccccc32)s1 22.4 µM [activator, partial curve]
COC(=O)C1CCCCN1C(=O)c1ccc2oc(Cc3ccccc3)nc2c1 (configuration not stated) 10 µM [activator, partial curve]
CCOc1ccccc1NC(=O)C(OC(=O)c1cnccn1)c1ccccc1 (configuration not stated) 11.2 µM [activator, partial curve]
O=C(NNC(=O)C12CC3CC(CC(C3)C1)C2)c1ccccn1 35.5 µM [activator, single point]
O=C1CC(c2cccnc2)c2cc3c(cc2N1)OCO3 (configuration not stated) 0.501 µM [activator, full curve, poor fit]
COc1cc(OC)cc(N2C(=O)CC(N3CCC(C(=O)N4CCCCC4)CC3)C2=O)c1 (configuration not stated) 35.5 µM [activator, single point]
O=C(OCc1c(F)cccc1Cl)c1cccnc1Cl 12.6 µM [activator, partial curve]
Cc1nnsc1C(=O)NC1CCCc2c1cnn2-c1ccc(C(C)(C)C)cc1 (configuration not stated) 20 µM [activator, partial curve]
Brc1cccc2sc(N3CCCC3)nc12 35.5 µM [activator, partial curve]
COc1ccc(/C=C/C(=O)O)cc1 14.1 µM [activator, partial curve]
O=C(O)Cc1csc2ccccc12 7.08 µM [activator, partial curve]
Cc1ccc(-c2csc(NC(=O)c3c(C)noc3C)n2)cc1 10 µM [activator, partial curve]
COc1ccc(OCC(=O)Nc2cc(OC)ccc2N2CCCCC2)cc1 8.91 µM [activator, single point]
O=C(c1cc([N+](=O)[O-])cc([N+](=O)[O-])c1)N1CCCc2ccccc21 35.5 µM [activator, single point]
O=S(=O)(NC(=S)NC1CCCCC1)c1ccccc1 17.8 µM [activator, single point]
Cc1ccc(S(=O)(=O)C(CNS(=O)(=O)c2ccc(F)c(C)c2)c2cccs2)cc1 (configuration not stated) 3.98 µM [activator, full curve]
Cc1cc(C(C)(C)C)cc(C)c1C(=O)O 5.01 µM [activator, partial curve]
COc1ccc(N/N=C(/Oc2ccc([N+](=O)[O-])cc2)C(C)=O)cc1 14.1 µM [activator, single point]
COc1ccc(C(C)=O)cc1COC(=O)c1cnc(C)cn1 3.55 µM [activator, full curve]
COC(=O)[C@@H]1[C@@H](C#N)C2(c3ccccc3-c3ccccc32)N(c2ccc(Cl)cc2)N1C#N 5.62 µM [activator, single point]
COC(=O)CNC(c1ccccc1)c1cc(Br)ccc1NC(=O)c1ccc(Cl)cc1 (configuration not stated) 25.1 µM [activator, partial curve, poor fit]
CCOC(=O)c1nnn(-c2nonc2N)c1COc1cc(C)c(Cl)c(C)c1 11.2 µM [activator, partial curve]
COc1cccc(CN(C(=O)c2oc3ccc(Br)cc3c2C)C2CCS(=O)(=O)C2)c1 (configuration not stated) 25.1 µM [activator, partial curve, poor fit]
O=C(C=C1CCN(c2ncc(C(F)(F)F)cc2Cl)CC1)NNC(=O)Nc1ccccc1 39.8 µM [activator, partial curve, poor fit]
Brc1ccc(-c2nnc(SCCC3OCCCO3)o2)cc1 3.55 µM [activator, full curve]
O=S(=O)(c1ccc2c(c1)OCCO2)N1CCC(n2nnc3cc(C(F)(F)F)ccc32)CC1 6.31 µM [activator, single point]
COCCN(CCOC)Cc1cc(=O)oc2ccc3ccccc3c12 20 µM [activator, partial curve, poor fit]
CCOc1ccc(NC(=O)Nc2cccc(C)n2)cc1 11.2 µM [activator, partial curve]
COc1cccc(-c2nnc(NC(=O)c3ccccc3Br)o2)c1 17.8 µM [activator, single point]
O=C(Nc1ccc(S(=O)(=O)N2CCCC2)cc1)c1cc(F)c(F)cc1Cl 20 µM [activator, single point]
CC1CCc2c(sc3nn[nH]c(=O)c23)C1 (configuration not stated) 31.6 µM [activator, single point]
COc1ccc(C2Nc3ccccc3-n3c(-c4ccccc4)c4c(=O)n(C)c(=O)n(C)c4c32)cc1 (configuration not stated) 31.6 µM [activator, single point]
Cc1ccccc1-c1ccnc2c(-c3ccc(F)cc3)c(C)nn12 31.6 µM [activator, single point]
COc1ccc(-n2c(=S)[nH]c3cc(C(=O)Nc4cc(C(N)=O)ccc4OC)ccc3c2=O)c(OC)c1 6.31 µM [activator, single point]
Cc1ccc(-c2cc(N)n(Cc3cccc(Cl)c3)n2)cc1 10 µM [activator, partial curve]
C=C1[C@@H](O)[C@@H]2O[C@]3(CC[C@H](/C=C/[C@@H](C)[C@@H]4CC(C)=CC5(O[C@H](C[C@@](C)(O)C(=O)OC)CC[C@H]5O)O4)O3)CC[C@H]2O[C@@H]1[C@@H](O)C[C@H](C)[C@H]1OC2(CCCCO2)CC[C@H]1C (some centres not stated) 3.16 µM [activator, partial curve]
COc1ccc(CNc2nc3c(c(=O)n(Cc4ccc(F)cc4)c(=O)n3C)n2C)cc1 25.1 µM [activator, single point]
CC1(C)CC(=O)C2=C(C1)OC(N)=C(C#N)C2c1ccc(OC(=O)N2CCOCC2)cc1 (configuration not stated) 2.82 µM [activator, partial curve]
CCOC(=O)Nc1ccc2c(c1)C(=NNC(N)=S)c1ccccc1-2 35.5 µM [activator, single point]
CCOc1ccc(NC(=O)CN(C)C(=O)c2ccc(COc3ccccc3)cc2)cc1OCC 5.01 µM [activator, partial curve]
CCOC(=O)C(C)(C)N(Cc1cccc(C)c1)S(=O)(=O)c1cccc([N+](=O)[O-])c1 14.1 µM [activator, single point]
COc1ccc(OC)c(/C=N\NC(=O)c2ccc(-c3ccccc3)cc2)c1 1.78 µM [activator, partial curve, poor fit]

Potency, active:
CN(C(=O)c1ccc(Oc2ccc([N+](=O)[O-])cc2)cc1)C1CCCCC1 20 µM
COc1cc(Nc2cccc(-c3ccccc3)n2)cc(OC)c1OC 31.6 µM
CCOC(=O)c1ccccc1NC(=S)N1CCC(C)CC1 11.2 µM
CCOCCCNC(=S)N1CCN(c2nc(-c3ccccc3)cs2)CC1 20 µM
CCOC(=O)c1ccc(NC(=S)N2CCSC2c2ccc(Cl)cc2)cc1 (configuration not stated) 15.8 µM
Cc1coc2cc3oc(=O)c(CCC(=O)N4CCCCC4)c(C)c3cc12 22.4 µM
COc1ccc(F)cc1C1=CC(=O)C[C@H](c2ccc3c(c2)OCO3)C1 22.4 µM
O=C(OCc1nc2scc(-c3ccccc3)c2c(=O)[nH]1)c1ccco1 35.5 µM

Potency, inactive:
COc1cccc(C(=O)N(Cc2ccccc2)Cc2cc3cc4c(cc3[nH]c2=O)OCCO4)c1
COc1cccc(CNC(=O)c2ccc3c(c2)nc2n3CCC(C)C2)c1 (configuration not stated)
CCOCCCn1c(=N)c(C(=O)NCc2ccccc2)cc2c(=O)n3ccccc3nc21
CCOc1ccccc1OCC(=O)OCC(=O)Nc1ncc(Cl)cc1Cl
CCc1ccccc1N(CC)C(=O)Cn1nc(Cc2ccncc2)c2ccccc2c1=O
Cc1ccc(-n2cnc3cc(C(=O)NCCC4=CCCCC4)ccc32)cc1Cl
COc1ccccc1CNC(=O)CSc1cc(C)[nH]c(=O)n1
CCCN(CCC)C(=O)Cn1c(=O)n(-c2ccc(Cl)c(Cl)c2)c(=O)c2c(C)c(C(=O)N(C)C)sc21
COc1ccc(OC)c(/C=C/c2c([N+](=O)[O-])c(=O)n(C)c(=O)n2C)c1
COc1ccccc1-c1noc(-c2ccc(NCc3ccccc3)c([N+](=O)[O-])c2)n1
Cc1ccc(C)c(NC(=O)CCc2nc3cccnc3n2Cc2cccs2)c1
COc1ccc(NC(=O)c2ccc3c(c2)N(Cc2cccc(Cl)c2)C(=O)c2ccccc2S3(=O)=O)cc1Cl
CCOc1ccccc1CNC(=O)C1CCN(C(=O)N2CCOc3ccc(Cl)cc32)CC1
COc1cc(C(=O)N2CCc3c([nH]c4ccccc34)C2c2ccc(F)cc2)cc(OC)c1OC (configuration not stated)

Growth rescue (activation), inconclusive:
COCCNC(=S)N1CCN(c2nc(-c3ccc(Cl)cc3)cs2)CC1 75.2% [activator]
